From the supplement of paper PMC9151546
Many values rest on one well or one pass, so single values are uncertain.

Key:
CHO-K1 [1] = test: hypodiploid nuclei frequency (% of nucleated events); higher = more hypodiploid events (aneugenic)
Description: (§1)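 Flow-cytometric in vitro micronucleus assay (Litron MicroFlow) in CHO-K1 cells in 96-well plates, 19 concentrations (4.5-200 µM, n=1 per concentration). Without S9, cells were exposed for 24 h and sampled at 48 h. With Aroclor 1254-induced rat liver S9, cells were exposed for 3-4 h and sampled at 27-28 h. Read-outs are %MN and %hypodiploid nuclei relative to nucleated events, and relative survival as the nuclei-to-bead ratio versus the 1% DMSO vehicle control (x100).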

CHO-K1 [2] = test: relative survival (nuclei to bead ratio vs DMSO control) (% of vehicle control); higher = more surviving cells
Description: as §1

CHO-K1 [3] = test: micronucleus frequency (% of nucleated events); higher = more micronuclei (genotoxic)
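Throughout, for hypodiploid nuclei frequency (% of nucleated events): hypodiploid nuclei gated on a flow cytometer with 488 nm excitation after SYTOX Green staining, cultures at 37 °C, positive controls vinblastine without S9 and cyclophosphamide with S9.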
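Throughout, for micronucleus frequency (% of nucleated events): cells lysed with nuclei stained by SYTOX Green, then micronucleus-gated events counted against nucleated events by flow cytometry with 488 nm excitation.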
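Throughout, for relative survival (nuclei to bead ratio vs DMSO control): Lysed-cell nuclei stained with SYTOX Green and counted against counting beads by flow cytometry at 488 nm excitation, with vinblastine (no S9) and cyclophosphamide (plus S9) as positive controls.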

CC(N)=O [Acetamide]
Conditions	hypodiploid nuclei frequency, CHO-K1 [1] [%]	micronucleus frequency, CHO-K1 [3] [%]	relative survival, CHO-K1 [2]
concentration: 0.446 (µM), S9 metabolic activation: with S9, exposure time: 3-4 hours	0.52	1.42	98.5
concentration: 0.446 (µM), S9 metabolic activation: without S9, exposure time: 24 hours	3.58	1.7	114
concentration: 0.557 (µM), S9 metabolic activation: with S9, exposure time: 3-4 hours	0.4	1.08	124
concentration: 0.557 (µM), S9 metabolic activation: without S9, exposure time: 24 hours	1.22	1.18	129
concentration: 0.697 (µM), S9 metabolic activation: with S9, exposure time: 3-4 hours	0.32	0.92	106
concentration: 0.697 (µM), S9 metabolic activation: without S9, exposure time: 24 hours	1.06	0.88	120
concentration: 0.871 (µM), S9 metabolic activation: with S9, exposure time: 3-4 hours	0.26	0.88	119
concentration: 0.871 (µM), S9 metabolic activation: without S9, exposure time: 24 hours	0.66	1.06	126
concentration: 1.09 (µM), S9 metabolic activation: with S9, exposure time: 3-4 hours	0.36	0.96	123
concentration: 1.09 (µM), S9 metabolic activation: without S9, exposure time: 24 hours	0.54	1.26	120
concentration: 1.36 (µM), S9 metabolic activation: with S9, exposure time: 3-4 hours	0.42	1.2	128
concentration: 1.36 (µM), S9 metabolic activation: without S9, exposure time: 24 hours	0.98	1.22	134
concentration: 1.7 (µM), S9 metabolic activation: with S9, exposure time: 3-4 hours	0.28	0.82	121
concentration: 1.7 (µM), S9 metabolic activation: without S9, exposure time: 24 hours	0.74	1.86	133
concentration: 2.13 (µM), S9 metabolic activation: with S9, exposure time: 3-4 hours	0.46	1.2	120
concentration: 2.13 (µM), S9 metabolic activation: without S9, exposure time: 24 hours	0.84	1.2	136
concentration: 2.66 (µM), S9 metabolic activation: with S9, exposure time: 3-4 hours	0.38	1.12	111
concentration: 2.66 (µM), S9 metabolic activation: without S9, exposure time: 24 hours	5.48	1.24	118
concentration: 3.32 (µM), S9 metabolic activation: with S9, exposure time: 3-4 hours	0.26	1.18	109
concentration: 3.32 (µM), S9 metabolic activation: without S9, exposure time: 24 hours	16.5	2.2	90.9
concentration: 4.15 (µM), S9 metabolic activation: with S9, exposure time: 3-4 hours	0.28	1.38	122
concentration: 4.15 (µM), S9 metabolic activation: without S9, exposure time: 24 hours	1.68	1.42	118
concentration: 5.19 (µM), S9 metabolic activation: with S9, exposure time: 3-4 hours	0.28	0.96	112
concentration: 5.19 (µM), S9 metabolic activation: without S9, exposure time: 24 hours	1.46	1.4	118
concentration: 6.49 (µM), S9 metabolic activation: with S9, exposure time: 3-4 hours	0.28	1.08	101
concentration: 6.49 (µM), S9 metabolic activation: without S9, exposure time: 24 hours	1.46	1.28	138
concentration: 8.11 (µM), S9 metabolic activation: with S9, exposure time: 3-4 hours	0.32	0.82	100
concentration: 8.11 (µM), S9 metabolic activation: without S9, exposure time: 24 hours	1.48	1.8	135
concentration: 10.1 (µM), S9 metabolic activation: with S9, exposure time: 3-4 hours	0.24	1.52	104
concentration: 10.1 (µM), S9 metabolic activation: without S9, exposure time: 24 hours	1.06	2.22	124
concentration: 12.7 (µM), S9 metabolic activation: with S9, exposure time: 3-4 hours	0.26	1.06	104
concentration: 12.7 (µM), S9 metabolic activation: without S9, exposure time: 24 hours	1.16	1.68	135
concentration: 15.8 (µM), S9 metabolic activation: with S9, exposure time: 3-4 hours	0.18	1.3	117
concentration: 15.8 (µM), S9 metabolic activation: without S9, exposure time: 24 hours	1.62	1.76	130
concentration: 19.8 (µM), S9 metabolic activation: with S9, exposure time: 3-4 hours	0.28	1.26	113
concentration: 19.8 (µM), S9 metabolic activation: without S9, exposure time: 24 hours	1.82	2.36	105

COc1cc(-c2ccc(N)c(OC)c2)ccc1N [3,3'-Dimethoxybenzidine]
Conditions	hypodiploid nuclei frequency, CHO-K1 [1] [%]	micronucleus frequency, CHO-K1 [3] [%]	relative survival, CHO-K1 [2]
concentration: 4.5 (µM), S9 metabolic activation: with S9, exposure time: 3-4 hours	0.19	0.69	73.9
concentration: 4.5 (µM), S9 metabolic activation: without S9, exposure time: 24 hours	0.44	1.34	91.7
concentration: 5.63 (µM), S9 metabolic activation: with S9, exposure time: 3-4 hours	0.18	0.76	75.7
concentration: 5.63 (µM), S9 metabolic activation: without S9, exposure time: 24 hours	0.56	1.66	107
concentration: 7.04 (µM), S9 metabolic activation: with S9, exposure time: 3-4 hours	0.14	1.04	91.1
concentration: 7.04 (µM), S9 metabolic activation: without S9, exposure time: 24 hours	0.5	1.52	85.4
concentration: 8.8 (µM), S9 metabolic activation: with S9, exposure time: 3-4 hours	0.2	1.08	97.9
concentration: 8.8 (µM), S9 metabolic activation: without S9, exposure time: 24 hours	0.46	1.64	96.5
concentration: 11 (µM), S9 metabolic activation: with S9, exposure time: 3-4 hours	0.14	0.96	105
concentration: 11 (µM), S9 metabolic activation: without S9, exposure time: 24 hours	0.58	2	97.2
concentration: 13.7 (µM), S9 metabolic activation: with S9, exposure time: 3-4 hours	0.16	1.26	84.4
concentration: 13.7 (µM), S9 metabolic activation: without S9, exposure time: 24 hours	0.46	1.68	95.4
concentration: 17.2 (µM), S9 metabolic activation: with S9, exposure time: 3-4 hours	0.24	0.76	94.8
concentration: 17.2 (µM), S9 metabolic activation: without S9, exposure time: 24 hours	0.5	2	97.2
concentration: 21.5 (µM), S9 metabolic activation: with S9, exposure time: 3-4 hours	0.12	0.9	105
concentration: 21.5 (µM), S9 metabolic activation: without S9, exposure time: 24 hours	0.74	1.9	87.1
concentration: 26.8 (µM), S9 metabolic activation: with S9, exposure time: 3-4 hours	0.28	0.72	84.4
concentration: 26.8 (µM), S9 metabolic activation: without S9, exposure time: 24 hours	0.46	0.98	59.5
concentration: 33.6 (µM), S9 metabolic activation: with S9, exposure time: 3-4 hours	0.16	0.5	41.8
concentration: 33.6 (µM), S9 metabolic activation: without S9, exposure time: 24 hours	0.44	0.98	60.6
concentration: 41.9 (µM), S9 metabolic activation: with S9, exposure time: 3-4 hours	0.28	0.77	41.5
concentration: 41.9 (µM), S9 metabolic activation: without S9, exposure time: 24 hours	0.48	1.3	56.9
concentration: 52.4 (µM), S9 metabolic activation: with S9, exposure time: 3-4 hours	0.32	0.79	43.5
concentration: 52.4 (µM), S9 metabolic activation: without S9, exposure time: 24 hours	0.7	1	47.6
concentration: 65.5 (µM), S9 metabolic activation: with S9, exposure time: 3-4 hours	0.16	0.7	62.4
concentration: 65.5 (µM), S9 metabolic activation: without S9, exposure time: 24 hours	0.62	1.7	53.3
concentration: 81.9 (µM), S9 metabolic activation: with S9, exposure time: 3-4 hours	0.2	1.04	47
concentration: 81.9 (µM), S9 metabolic activation: without S9, exposure time: 24 hours	0.78	1.46	52.2
concentration: 102 (µM), S9 metabolic activation: with S9, exposure time: 3-4 hours	0.2	1.12	62.5
concentration: 102 (µM), S9 metabolic activation: without S9, exposure time: 24 hours	0.72	1.24	43.2
concentration: 128 (µM), S9 metabolic activation: with S9, exposure time: 3-4 hours	0.2	1.04	52.9
concentration: 128 (µM), S9 metabolic activation: without S9, exposure time: 24 hours	0.7	1.32	54.5
concentration: 160 (µM), S9 metabolic activation: with S9, exposure time: 3-4 hours	0.26	1.04	64.3
concentration: 160 (µM), S9 metabolic activation: without S9, exposure time: 24 hours	0.57	1.64	40.8
concentration: 200 (µM), S9 metabolic activation: with S9, exposure time: 3-4 hours	0.26	1.17	61.3
concentration: 200 (µM), S9 metabolic activation: without S9, exposure time: 24 hours	–	–	37.8

O=c1n(CC2CO2)c(=O)n(CC2CO2)c(=O)n1CC1CO1 (stereo not given) [Triglycidyl isocyanurate]
Conditions	hypodiploid nuclei frequency, CHO-K1 [1] [%]	micronucleus frequency, CHO-K1 [3] [%]	relative survival, CHO-K1 [2]
concentration: 4.5 (µM), S9 metabolic activation: with S9, exposure time: 3-4 hours	0.24	1.9	99.8
concentration: 4.5 (µM), S9 metabolic activation: without S9, exposure time: 24 hours	0.82	13.1	71.6
concentration: 5.63 (µM), S9 metabolic activation: with S9, exposure time: 3-4 hours	0.32	2.92	104
concentration: 5.63 (µM), S9 metabolic activation: without S9, exposure time: 24 hours	1.32	14.2	64.7
concentration: 7.04 (µM), S9 metabolic activation: with S9, exposure time: 3-4 hours	0.22	2.6	114
concentration: 7.04 (µM), S9 metabolic activation: without S9, exposure time: 24 hours	1.06	14.4	64.9
concentration: 8.8 (µM), S9 metabolic activation: with S9, exposure time: 3-4 hours	0.34	2.78	116
concentration: 8.8 (µM), S9 metabolic activation: without S9, exposure time: 24 hours	0.96	16.9	66.7
concentration: 11 (µM), S9 metabolic activation: with S9, exposure time: 3-4 hours	0.2	2.72	95.1
concentration: 11 (µM), S9 metabolic activation: without S9, exposure time: 24 hours	1.18	18.9	59.7
concentration: 13.7 (µM), S9 metabolic activation: with S9, exposure time: 3-4 hours	0.24	4.6	116
concentration: 13.7 (µM), S9 metabolic activation: without S9, exposure time: 24 hours	1.08	17.9	62.4
concentration: 17.2 (µM), S9 metabolic activation: with S9, exposure time: 3-4 hours	0.3	4.32	103
concentration: 17.2 (µM), S9 metabolic activation: without S9, exposure time: 24 hours	0.94	20.6	73.8
concentration: 21.5 (µM), S9 metabolic activation: with S9, exposure time: 3-4 hours	0.12	4.06	122
concentration: 21.5 (µM), S9 metabolic activation: without S9, exposure time: 24 hours	1.06	18.6	54
concentration: 26.8 (µM), S9 metabolic activation: with S9, exposure time: 3-4 hours	0.44	6.28	74.1
concentration: 26.8 (µM), S9 metabolic activation: without S9, exposure time: 24 hours	1.92	23.5	60.1
concentration: 33.6 (µM), S9 metabolic activation: with S9, exposure time: 3-4 hours	0.28	5.72	93.5
concentration: 33.6 (µM), S9 metabolic activation: without S9, exposure time: 24 hours	2.16	24.6	69
concentration: 41.9 (µM), S9 metabolic activation: with S9, exposure time: 3-4 hours	0.34	7.36	67
concentration: 41.9 (µM), S9 metabolic activation: without S9, exposure time: 24 hours	3.16	23.4	43.9
concentration: 52.4 (µM), S9 metabolic activation: with S9, exposure time: 3-4 hours	0.38	7.74	69.5
concentration: 52.4 (µM), S9 metabolic activation: without S9, exposure time: 24 hours	3.94	21.2	55
concentration: 65.5 (µM), S9 metabolic activation: with S9, exposure time: 3-4 hours	0.52	11.4	61.2
concentration: 65.5 (µM), S9 metabolic activation: without S9, exposure time: 24 hours	6.56	25.5	43.5
concentration: 81.9 (µM), S9 metabolic activation: with S9, exposure time: 3-4 hours	0.58	11.5	64.6
concentration: 81.9 (µM), S9 metabolic activation: without S9, exposure time: 24 hours	7.46	27.8	49.1
concentration: 102 (µM), S9 metabolic activation: with S9, exposure time: 3-4 hours	0.64	14.5	48.6
concentration: 102 (µM), S9 metabolic activation: without S9, exposure time: 24 hours	6.16	28.5	50.1
concentration: 128 (µM), S9 metabolic activation: with S9, exposure time: 3-4 hours	1.14	15	48.8
concentration: 128 (µM), S9 metabolic activation: without S9, exposure time: 24 hours	4.56	19.6	53.9
concentration: 160 (µM), S9 metabolic activation: with S9, exposure time: 3-4 hours	1.32	15.4	54.6
concentration: 160 (µM), S9 metabolic activation: without S9, exposure time: 24 hours	2.22	11.5	41.7
concentration: 200 (µM), S9 metabolic activation: with S9, exposure time: 3-4 hours	1.9	13.4	49.9
concentration: 200 (µM), S9 metabolic activation: without S9, exposure time: 24 hours	–	–	28.1
